# Laboratory results from the supplement of paper PMC8728848.
# This is one part of the list.
# B1: GS13455A-bfa-343-25-343 (Bacteroides fragilis) (protein)
# chain: KDEIQIVDQDTSWQMDNKYIEEDIREQLGIDPFTDLVYLGYYGNPYTQLEAINDLVNTTLVGKNELSFKVKVTKPYKEDIKVNLMKEDKLVTDFPEMAEGIPLFPSENCTFEGGVLKAGELETTVKLTLKDVEKLNNLSGYVMAIKLTMEGSHEHLAIARTRSSYFVKLNLSIRLDNIDSSNKKIEGKGFNKEISFKSDIRPDKLGSLNDGNFTANNWYTSNANNYLTIILPEKQSLKGFRLDTNTSPSGSYMLKSCRVMVETPDGNWVNHGVFDRKSMDGIAYISFKKPVECTKVRFENMMAFNGRFSVDVNEVTAFR
# Columns and labels:
# Assay in all cases: glycan array binding signal (z-score within array); higher = stronger binding
# Settings in all cases: glycan notation: IUPAC condensed, linker removed
# Gal(a1-3)Gal(b1-3)GlcNAc = target: Gal(a1-3)Gal(b1-3)GlcNAc
# How it was run: (§1)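 From the Consortium for Functional Glycomics database, 3228 arrays were curated, keeping only those whose protein sequence was available. Binding is given as a within-array Z-score averaged across arrays sharing a protein sequence and across linkers. Negative Z-scores can be read as non-binding.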
# [1] = target: Gal(a1-3)Gal(b1-3)GlcNAc(b1-2)Man
# How it was run: as §1
# [2] = target: Gal(a1-3)Gal(b1-3)GlcNAc(b1-2)Man(a1-3)[Gal(a1-3)Gal(b1-3)GlcNAc(b1-2)Man(a1-6)]Man(b1-4)GlcNAc(b1-4)GlcNAc
# How it was run: as §1
# [3] = target: Gal(a1-3)Gal(b1-3)GlcNAc(b1-3)GalNAc
# How it was run: as §1
# [4] = target: Gal(a1-3)Gal(b1-3)GlcNAc(b1-6)GalNAc
# How it was run: as §1
# [5] = target: Gal(a1-3)Gal(b1-3)[Fuc(a1-4)]GlcNAc(b1-2)Man(a1-3)[Gal(a1-3)Gal(b1-3)[Fuc(a1-4)]GlcNAc(b1-2)Man(a1-6)]Man(b1-4)GlcNAc(b1-4)GlcNAc
# How it was run: as §1
# Gal(a1-3)Gal(b1-4)Glc = target: Gal(a1-3)Gal(b1-4)Glc
# How it was run: as §1
# Gal(a1-3)Gal(b1-4)GlcNAc = target: Gal(a1-3)Gal(b1-4)GlcNAc
# How it was run: as §1
# [6] = target: Gal(a1-3)Gal(b1-4)GlcNAc(b1-2)Man
# How it was run: as §1
# [7] = target: Gal(a1-3)Gal(b1-4)GlcNAc(b1-2)Man(a1-3)[Gal(a1-3)Gal(b1-4)GlcNAc(b1-2)Man(a1-6)]Man(b1-4)GlcNAc(b1-4)GlcNAc
# How it was run: as §1
# [8] = target: Gal(a1-3)Gal(b1-4)GlcNAc(b1-3)GalNAc
# How it was run: as §1
# [9] = target: Gal(a1-3)Gal(b1-4)GlcNAc(b1-6)GalNAc
# How it was run: as §1
# [10] = target: Gal(a1-3)Gal(b1-4)[Fuc(a1-3)]GlcNAc
# How it was run: as §1
# [11] = target: Gal(a1-3)Gal(b1-4)[Fuc(a1-3)]GlcNAc(b1-2)Man(a1-3)[Gal(a1-3)Gal(b1-4)[Fuc(a1-3)]GlcNAc(b1-2)Man(a1-6)]Man(b1-4)GlcNAc(b1-4)GlcNAc
# How it was run: as §1
# Gal(a1-3)GalNAc = target: Gal(a1-3)GalNAc
# How it was run: as §1
# [12] = target: Gal(a1-3)[Gal(a1-4)]Gal(b1-4)GlcNAc
# How it was run: as §1
# [13] = target: Gal(a1-4)Gal(b1-3)GlcNAc(b1-2)Man(a1-3)[Gal(a1-4)Gal(b1-3)GlcNAc(b1-2)Man(a1-6)]Man(b1-4)GlcNAc(b1-4)GlcNAc
# How it was run: as §1
# Gal(a1-4)Gal(b1-4)Glc = target: Gal(a1-4)Gal(b1-4)Glc
# How it was run: as §1
# Gal(a1-4)Gal(b1-4)GlcNAc = target: Gal(a1-4)Gal(b1-4)GlcNAc
# How it was run: as §1
# [14] = target: Gal(a1-4)Gal(b1-4)GlcNAc(b1-2)Man(a1-3)[Gal(a1-4)Gal(b1-4)GlcNAc(b1-2)Man(a1-6)]Man(b1-4)GlcNAc(b1-4)GlcNAc
# How it was run: as §1
# [15] = target: Gal(a1-4)Gal(b1-4)GlcNAc(b1-3)Gal(b1-4)Glc
# How it was run: as §1
# Gal(a1-4)GlcNAc = target: Gal(a1-4)GlcNAc
# How it was run: as §1
# Gal(a1-6)Glc = target: Gal(a1-6)Glc
# How it was run: as §1
# Gal(b1-2)Gal = target: Gal(b1-2)Gal
# How it was run: as §1
# Gal(b1-3)Gal = target: Gal(b1-3)Gal
# How it was run: as §1
# Gal(b1-3)Gal(b1-4)GlcNAc = target: Gal(b1-3)Gal(b1-4)GlcNAc
# How it was run: as §1
# Gal(b1-3)GalNAc = target: Gal(b1-3)GalNAc
# How it was run: as §1
# [16] = target: Gal(b1-3)GalNAc(a1-3)[Fuc(a1-2)]Gal(b1-4)Glc
# How it was run: as §1
# [17] = target: Gal(b1-3)GalNAc(a1-3)[Fuc(a1-2)]Gal(b1-4)GlcNAc
# How it was run: as §1
# Gal(b1-3)GalNAc(b1-3)Gal = target: Gal(b1-3)GalNAc(b1-3)Gal
# How it was run: as §1
# [18] = target: Gal(b1-3)GalNAc(b1-3)Gal(a1-4)Gal(b1-4)Glc
# How it was run: as §1
# [19] = target: Gal(b1-3)GalNAc(b1-4)Gal(b1-4)Glc
# How it was run: as §1
# [20] = target: Gal(b1-3)GalNAc(b1-4)[Neu5Ac(a2-3)]Gal(b1-4)Glc
# How it was run: as §1
# Gal(b1-3)GlcNAc = target: Gal(b1-3)GlcNAc
# How it was run: as §1
# [21] = target: Gal(b1-3)GlcNAc(a1-3)Gal(b1-4)GlcNAc
# How it was run: as §1
# [22] = target: Gal(b1-3)GlcNAc(a1-6)Gal(b1-4)GlcNAc
# How it was run: as §1
# Gal(b1-3)GlcNAc(b1-2)Man = target: Gal(b1-3)GlcNAc(b1-2)Man
# How it was run: as §1
# [23] = target: Gal(b1-3)GlcNAc(b1-2)Man(a1-3)[Gal(b1-3)GlcNAc(b1-2)Man(a1-6)]Man(b1-4)GlcNAc(b1-4)GlcNAc
# How it was run: as §1
binder,measurement,setting,value
B1,glycan array binding signal (z-score),Gal(a1-3)Gal(b1-3)GlcNAc,0.317
same,glycan array binding signal (z-score),[1],0.026
same,glycan array binding signal (z-score),[2],-0.044
same,glycan array binding signal (z-score),[3],-0.278
same,glycan array binding signal (z-score),[4],-0.515
same,glycan array binding signal (z-score),[5],0.372
same,glycan array binding signal (z-score),Gal(a1-3)Gal(b1-4)Glc,-0.29
same,glycan array binding signal (z-score),Gal(a1-3)Gal(b1-4)GlcNAc,-0.51
same,glycan array binding signal (z-score),[6],-0.548
same,glycan array binding signal (z-score),[7],-0.3
same,glycan array binding signal (z-score),[8],0.418
same,glycan array binding signal (z-score),[9],-0.675
same,glycan array binding signal (z-score),[10],0.787
same,glycan array binding signal (z-score),[11],0.922
same,glycan array binding signal (z-score),Gal(a1-3)GalNAc,-0.132
same,glycan array binding signal (z-score),[12],1.91
same,glycan array binding signal (z-score),[13],-0.925
same,glycan array binding signal (z-score),Gal(a1-4)Gal(b1-4)Glc,-0.076
same,glycan array binding signal (z-score),Gal(a1-4)Gal(b1-4)GlcNAc,0.408
same,glycan array binding signal (z-score),[14],-0.283
same,glycan array binding signal (z-score),[15],-0.485
same,glycan array binding signal (z-score),Gal(a1-4)GlcNAc,-0.648
same,glycan array binding signal (z-score),Gal(a1-6)Glc,-0.664
same,glycan array binding signal (z-score),Gal(b1-2)Gal,-0.706
same,glycan array binding signal (z-score),Gal(b1-3)Gal,-0.383
same,glycan array binding signal (z-score),Gal(b1-3)Gal(b1-4)GlcNAc,-0.061
same,glycan array binding signal (z-score),Gal(b1-3)GalNAc,-0.233
same,glycan array binding signal (z-score),[16],-0.504
same,glycan array binding signal (z-score),[17],-0.147
same,glycan array binding signal (z-score),Gal(b1-3)GalNAc(b1-3)Gal,0.012
same,glycan array binding signal (z-score),[18],0.625
same,glycan array binding signal (z-score),[19],-0.178
same,glycan array binding signal (z-score),[20],-0.051
same,glycan array binding signal (z-score),Gal(b1-3)GlcNAc,0.752
same,glycan array binding signal (z-score),[21],0.493
same,glycan array binding signal (z-score),[22],1.12
same,glycan array binding signal (z-score),Gal(b1-3)GlcNAc(b1-2)Man,1.35
same,glycan array binding signal (z-score),[23],-0.161
